# The other results are listed elsewhere or left out.
# B1: F17-L (Escherichia coli) (protein)
# chain: GPDDYVPSQIAVNTSTLPGVVIGPADAHTYPRVIGELAGTSNQYVFNGGAIALMRGKFTPALPKIGSITYTFHQGNSRDSSDFDIYDIGVSGLGIIIGMAGYWPATPLVPINSSGIYIDPVGANTNPNTYNGATASFGARLFVAFVATGRLPNGYITIPTRQLGTILLEAKRTSLNNKGLTAPVMLNGGRIQVQSQTHHHHHH
# How the values were obtained:
# Experiment in all cases: glycan array binding signal (z-score within array); higher = stronger binding
# Settings in all cases: glycan notation: IUPAC condensed, linker removed
# [1] = molecular target: Neu5Ac(a2-6)Gal(b1-4)GlcNAc(b1-2)Man(a1-3)[Neu5Ac(a2-3)Gal(b1-4)GlcNAc(b1-2)Man(a1-6)]Man(b1-4)GlcNAc(b1-4)GlcNAc
# Procedure, shortened: (§1)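 Columns mapping to the same glycan were averaged after glycan names were converted to IUPAC-condensed notation. The data come from 3228 arrays in the Consortium for Functional Glycomics database, limited to those with an available protein sequence. Binding is reported as a within-array Z-score averaged across arrays of one protein sequence and across linkers.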
# [2] = molecular target: Neu5Ac(a2-6)Gal(b1-4)GlcNAc(b1-2)Man(a1-3)[Neu5Ac(a2-6)Gal(b1-4)GlcNAc(b1-2)Man(a1-6)]Man(b1-4)GlcNAc(b1-4)GlcNAc
# Procedure, shortened: as §1
# [3] = molecular target: Neu5Ac(a2-6)Gal(b1-4)GlcNAc(b1-2)Man(a1-3)[Neu5Ac(a2-6)Gal(b1-4)GlcNAc(b1-2)Man(a1-6)]Man(b1-4)GlcNAc(b1-4)[Fuc(a1-6)]GlcNAc
# Procedure, shortened: as §1
# [4] = molecular target: Neu5Ac(a2-6)Gal(b1-4)GlcNAc(b1-2)Man(a1-6)Man(b1-4)GlcNAc(b1-4)GlcNAc
# Procedure, shortened: as §1
# [5] = molecular target: Neu5Ac(a2-6)Gal(b1-4)GlcNAc(b1-2)Man(a1-6)[Gal(b1-4)GlcNAc(b1-2)Man(a1-3)]Man(b1-4)GlcNAc(b1-4)GlcNAc
# Procedure, shortened: as §1
# [6] = molecular target: Neu5Ac(a2-6)Gal(b1-4)GlcNAc(b1-2)Man(a1-6)[GlcNAc(b1-2)Man(a1-3)]Man(b1-4)GlcNAc(b1-4)GlcNAc
# Procedure, shortened: as §1
# [7] = molecular target: Neu5Ac(a2-6)Gal(b1-4)GlcNAc(b1-2)Man(a1-6)[Man(a1-3)]Man(b1-4)GlcNAc(b1-4)GlcNAc
# Procedure, shortened: as §1
# [8] = molecular target: Neu5Ac(a2-6)Gal(b1-4)GlcNAc(b1-2)[Neu5Ac(a2-6)Gal(b1-4)GlcNAc(b1-4)]Man(a1-3)[GlcNAc(b1-4)][Neu5Ac(a2-6)Gal(b1-4)GlcNAc(b1-2)[Neu5Ac(a2-6)Gal(b1-4)GlcNAc(b1-6)]Man(a1-6)]Man(b1-4)GlcNAc(b1-4)GlcNAc
# Procedure, shortened: as §1
# [9] = molecular target: Neu5Ac(a2-6)Gal(b1-4)GlcNAc(b1-2)[Neu5Ac(a2-6)Gal(b1-4)GlcNAc(b1-4)]Man(a1-3)[GlcNAc(b1-4)][Neu5Ac(a2-6)Gal(b1-4)GlcNAc(b1-4)Man(a1-6)]Man(b1-4)GlcNAc(b1-4)GlcNAc
# Procedure, shortened: as §1
# [10] = molecular target: Neu5Ac(a2-6)Gal(b1-4)GlcNAc(b1-2)[Neu5Ac(a2-6)Gal(b1-4)GlcNAc(b1-6)]Man(a1-6)[Neu5Ac(a2-6)Gal(b1-4)GlcNAc(b1-2)Man(a1-3)][GlcNAc(b1-4)]Man(b1-4)GlcNAc(b1-4)GlcNAc
# Procedure, shortened: as §1
# [11] = molecular target: Neu5Ac(a2-6)Gal(b1-4)GlcNAc(b1-3)Gal(b1-3)GlcNAc
# Procedure, shortened: as §1
# [12] = molecular target: Neu5Ac(a2-6)Gal(b1-4)GlcNAc(b1-3)Gal(b1-4)GlcNAc
# Procedure, shortened: as §1
# [13] = molecular target: Neu5Ac(a2-6)Gal(b1-4)GlcNAc(b1-3)Gal(b1-4)GlcNAc(b1-2)Man(a1-3)[Neu5Ac(a2-6)Gal(b1-4)GlcNAc(b1-3)Gal(b1-4)GlcNAc(b1-2)Man(a1-6)]GalNAc
# Procedure, shortened: as §1
# [14] = molecular target: Neu5Ac(a2-6)Gal(b1-4)GlcNAc(b1-3)Gal(b1-4)GlcNAc(b1-3)Gal(b1-4)GlcNAc
# Procedure, shortened: as §1
# [15] = molecular target: Neu5Ac(a2-6)Gal(b1-4)GlcNAc(b1-3)Gal(b1-4)GlcNAc(b1-3)Gal(b1-4)GlcNAc(b1-2)Man(a1-3)[Neu5Ac(a2-6)Gal(b1-4)GlcNAc(b1-3)Gal(b1-4)GlcNAc(b1-3)Gal(b1-4)GlcNAc(b1-2)Man(a1-6)]GalNAc
# Procedure, shortened: as §1
# [16] = molecular target: Neu5Ac(a2-6)Gal(b1-4)GlcNAc(b1-3)Gal(b1-4)GlcNAc(b1-3)GalNAc
# Procedure, shortened: as §1
# [17] = molecular target: Neu5Ac(a2-6)Gal(b1-4)GlcNAc(b1-3)Gal(b1-4)GlcNAc(b1-3)[Neu5Ac(a2-6)Gal(b1-4)GlcNAc(b1-3)Gal(b1-4)GlcNAc(b1-6)]GalNAc
# Procedure, shortened: as §1
# [18] = molecular target: Neu5Ac(a2-6)Gal(b1-4)GlcNAc(b1-3)Gal(b1-4)GlcNAc(b1-6)[Gal(b1-3)]GalNAc
# Procedure, shortened: as §1
# [19] = molecular target: Neu5Ac(a2-6)Gal(b1-4)GlcNAc(b1-3)Gal(b1-4)[Fuc(a1-3)]GlcNAc(b1-3)Gal(b1-4)[Fuc(a1-3)]GlcNAc
# Procedure, shortened: as §1
# [20] = molecular target: Neu5Ac(a2-6)Gal(b1-4)GlcNAc(b1-3)GalNAc
# Procedure, shortened: as §1
# [21] = molecular target: Neu5Ac(a2-6)Gal(b1-4)GlcNAc(b1-3)[Neu5Ac(a2-6)Gal(b1-4)GlcNAc(b1-6)]GalNAc
# Procedure, shortened: as §1
# [22] = molecular target: Neu5Ac(a2-6)Gal(b1-4)GlcNAc(b1-6)GalNAc
# Procedure, shortened: as §1
# [23] = molecular target: Neu5Ac(a2-6)Gal(b1-4)GlcNAc(b1-6)[Gal(b1-3)GlcNAc(b1-3)]Gal(b1-4)Glc
# Procedure, shortened: as §1
# [24] = molecular target: Neu5Ac(a2-6)Gal(b1-4)GlcNAc(b1-6)[Gal(b1-3)]GalNAc
# Procedure, shortened: as §1
# [25] = molecular target: Neu5Ac(a2-6)Gal(b1-4)GlcNAc6S
# Procedure, shortened: as §1
# [26] = molecular target: Neu5Ac(a2-6)GalNAc
# Procedure, shortened: as §1
# [27] = molecular target: Neu5Ac(a2-6)GalNAc(b1-4)GlcNAc
# Procedure, shortened: as §1
# [28] = molecular target: Neu5Ac(a2-6)GalNAc(b1-4)GlcNAc6S
# Procedure, shortened: as §1
# [29] = molecular target: Neu5Ac(a2-6)GlcNAc(b1-4)GlcNAc
# Procedure, shortened: as §1
# [30] = molecular target: Neu5Ac(a2-6)GlcNAc(b1-4)GlcNAc(b1-4)GlcNAc
# Procedure, shortened: as §1
binder,measurement,setting,value
B1,glycan array binding signal (z-score),[1],-0.128
same,glycan array binding signal (z-score),[2],-0.129
same,glycan array binding signal (z-score),[3],-0.145
same,glycan array binding signal (z-score),[4],-0.121
same,glycan array binding signal (z-score),[5],-0.069
same,glycan array binding signal (z-score),[6],-0.204
same,glycan array binding signal (z-score),[7],-0.171
same,glycan array binding signal (z-score),[8],-0.158
same,glycan array binding signal (z-score),[9],-0.063
same,glycan array binding signal (z-score),[10],-0.072
same,glycan array binding signal (z-score),[11],-0.103
same,glycan array binding signal (z-score),[12],-0.069
same,glycan array binding signal (z-score),[13],-0.091
same,glycan array binding signal (z-score),[14],-0.186
same,glycan array binding signal (z-score),[15],0.087
same,glycan array binding signal (z-score),[16],-0.132
same,glycan array binding signal (z-score),[17],-0.014
same,glycan array binding signal (z-score),[18],-0.112
same,glycan array binding signal (z-score),[19],-0.091
same,glycan array binding signal (z-score),[20],0.078
same,glycan array binding signal (z-score),[21],-0.047
same,glycan array binding signal (z-score),[22],-0.152
same,glycan array binding signal (z-score),[23],-0.155
same,glycan array binding signal (z-score),[24],-0.149
same,glycan array binding signal (z-score),[25],-0.097
same,glycan array binding signal (z-score),[26],-0.135
same,glycan array binding signal (z-score),[27],-0.15
same,glycan array binding signal (z-score),[28],-0.14
same,glycan array binding signal (z-score),[29],-0.12
same,glycan array binding signal (z-score),[30],-0.088
